# Test results as given in the antibiotic and cytotoxicity screens of Wong et al. (2023).
# The list shows a part of the results.
# System: HepG2
# Test: cytotoxicity call (relative viability < 0.9)
# Details: 10 µM
row,Compound,cytotoxicity call
1,Nc1ncccc1O,inactive
2,CCOC(=O)c1nnn(-c2nonc2N)c1CN1CCSCC1,inactive
3,C[C@@H]1CN([C@@H](C)CO)C(=O)c2cc(NC(=O)Nc3ccc(C(F)(F)F)cc3)ccc2O[C@@H]1CN(C)C(=O)Nc1ccc2c(c1)OCO2,active
4,COc1ccc(S(=O)(=O)N(C)C[C@@H]2Oc3ccc(NC(=O)Cn4cnnn4)cc3CC(=O)N([C@@H](C)CO)C[C@H]2C)cc1,inactive
5,COc1ccc(NC(=O)Nc2ccc3c(c2)C(=O)N([C@H](C)CO)C[C@@H](C)[C@@H](CN(C)Cc2ccc4c(c2)OCO4)OCCCC[C@H](C)O3)cc1,inactive
6,C[C@H](CO)N1C[C@H](C)[C@H](CN(C)Cc2cccc3c2OCCCO3)OCc2ccccc2-c2ccccc2C1=O,inactive
7,CCOc1nc2c(N)ncnc2n1CC,inactive
8,CC(=O)OC[C@@H]1O[C@H](O[C@@H]2CC[C@]34C[C@]35CC[C@]3(C)[C@@H]([C@@H](C)[C@H]6C[C@@H](O)C(C)(C)O6)CC[C@@]3(C)[C@H]5CC[C@H]4[C@H]2C)[C@@H](O)[C@H](OC(C)=O)[C@@H]1O[C@H]1O[C@@H](CO)[C@@H](O[C@H]2O[C@@H](CO)[C@@H](O)[C@@H](O)[C@@H]2O)[C@@H](O[C@H]2O[C@@H](C)[C@@H](O)[C@@H](O)[C@@H]2O)[C@@H]1O,inactive
9,C[C@@H]1CN([C@H](C)CO)C(=O)c2cc(NC(=O)Cn3cnnn3)ccc2O[C@@H]1CN(C)S(=O)(=O)c1ccccc1,inactive

# System: S. aureus RN4220
# Test: growth inhibition call (relative growth <= 0.2)
# Details: 50 µM
row,Compound,growth inhibition call
1,CN(C)CCCNC(=O)C[C@H]1CC[C@H]2[C@@H](COC[C@H](O)CN2C(=O)Nc2cc(Cl)cc(Cl)c2)O1,inactive
2,C[C@@H]1CCCCO[C@@H](CN(C)S(=O)(=O)c2ccc(Cl)cc2)[C@@H](C)CN([C@H](C)CO)C(=O)c2cc(NC(=O)Nc3cccc4ccccc34)ccc2O1,inactive
3,C[C@@H]1CCCCO[C@H](CN(C)C(=O)Nc2ccccc2)[C@H](C)CN([C@@H](C)CO)C(=O)c2cc(NS(=O)(=O)c3ccccc3)ccc2O1,inactive
4,C[C@H](CO)N1C[C@H](C)[C@H](CN(C)Cc2ccc(C(F)(F)F)cc2)Oc2ccc(NC(=O)Nc3ccc(F)cc3)cc2CC1=O,inactive
5,CCn1nnnc1NCc1cccn1C,inactive
6,C[C@@H]1CCCCO[C@@H](CN(C)CC2CCCCC2)[C@H](C)CN([C@H](C)CO)C(=O)c2cc(NC(=O)c3ccncc3)ccc2O1,inactive
7,CCOC(=O)C1=C(C)NC(C)=C(C(=O)OC)C1c1cccc([N+](=O)[O-])c1 (stereo not drawn),inactive
8,Cc1ccc(S(=O)(=O)N[C@@H](Cc2ccccc2)C(=O)NCCn2cc(C(=O)NO)nn2)cc1,inactive
9,C[C@H](O)C#Cc1ccc2c(c1)O[C@H](CN(C)C(=O)c1ccncc1)[C@H](C)CN([C@H](C)CO)S2(=O)=O,inactive
10,C[C@@H]1CN([C@@H](C)CO)C(=O)c2cccc(NS(=O)(=O)c3cccs3)c2O[C@H]1CN(C)S(=O)(=O)c1cn(C)cn1,inactive
11,Nc1ccn([C@@H]2O[C@H](CO)[C@@H](O)[C@@H]2O)c(=O)n1,inactive
12,C[C@H](CO)N1C[C@H](C)[C@H](CN(C)C(=O)C2CCCCC2)Oc2cc(-c3cncnc3)ccc2S1(=O)=O,inactive
13,C[C@@H]1CN([C@H](C)CO)C(=O)c2cccc(NS(=O)(=O)c3ccc(Cl)cc3)c2O[C@@H]1CN(C)C(=O)Nc1ccc(C(F)(F)F)cc1,inactive
14,C[C@@H]1CN([C@H](C)CO)C(=O)Cc2cc(NS(=O)(=O)c3cn(C)cn3)ccc2O[C@@H]1CN(C)S(=O)(=O)c1ccc(F)cc1,inactive
15,COc1cccc(CNC(=O)C[C@H]2C=C[C@H](NC(=O)C3CCOCC3)[C@@H](CO)O2)c1,inactive
16,C[C@@H]1CN([C@@H](C)CO)C(=O)c2cc(Br)cnc2O[C@H]1CN(C)S(=O)(=O)c1ccc(F)cc1,inactive
17,C[C@@H]1CN([C@H](C)CO)C(=O)c2cc(NC(=O)CCCCCC(=O)Nc3ccccc3N)ccc2O[C@@H](C)CCCCO[C@H]1CN(C)Cc1ccc(Cl)c(Cl)c1,inactive
18,C[C@@H]1CN([C@@H](C)CO)C(=O)Cc2cc(NC(=O)CCCCCC(=O)Nc3ccccc3N)ccc2O[C@H]1CN(C)S(=O)(=O)c1cn(C)cn1,inactive
19,C[C@@H]1CN([C@@H](C)CO)C(=O)c2cccc(NC(=O)CCCCCC(=O)Nc3ccccc3N)c2O[C@H]1CN(C)Cc1ccc(Oc2ccccc2)cc1,inactive
